Inconclusive means that the source gave no clear call. Such entries were picked first, then a sample of the others. Where the call is inconclusive, the potency comes from a doubtful curve fit. Active and inactive are the calls of the source. Calls come from the whole dose curve; as a rule, active = well fitted cell-killing curve with a large enough effect; inconclusive = small, poorly fitted or top-dose-only effect, or effect the other way; inactive = no such curve, though single readings can be large or run the other way.
Tests used:
[1] = Viability qHTS for spleen associated tyrosine kinase inhibitor (SYKi) naive MV4-11 cells (AID 1963823); conditions: MV4-11 AML viability, CellTiter-Glo luminescence, 72 h; series mostly up to 45 µM; note: nearly all actives have a fitted effect of over 40% in size
Outline: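 Read-out: CellTiter-Glo luminescence. Exposure: 72 hr, 37 C, 5% CO2, 95% humidity. Cells: MV4-11 without SYK inhibitor history, 500/well, qHTS format.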

[2] = Viability qHTS for spleen associated tyrosine kinase inhibitor (SYKi) drug resistant MV4-11 cells (AID 1963824); conditions: SYKi-resistant MV4-11 viability, CellTiter-Glo, 72 h; series mostly up to 45 µM; note: nearly all actives have a fitted effect of over 35% in size
Outline: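 SYK-inhibitor-resistant MV4-11 AML cells were seeded at 500 per well onto compound and cultured 72 hours (37 °C, 5% CO2). CellTiter-Glo was then added, and after 10 min at room temperature, luminescence gave viability.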
Potency is the fitted concentration of half-maximal effect; tags give direction and shape of the fitted curve.

Compound | Potency [1] | Potency [2]
C[C@]12CC[C@@H]3c4ccc(O)cc4CC[C@H]3[C@@H]1CC[C@@H]2OC(=O)CCC1CCCC1 | inconclusive: 4.11 µM [cytotoxic, full curve] | inconclusive: 20.6 µM [cytotoxic, partial curve]
C=C(C(=O)O)C1CC(O)C2(C)CCCC(=C)C2C1 (centres undefined) | inconclusive: 23.1 µM [cytotoxic, single point] | inconclusive: 18.4 µM [cytotoxic, single point]
O=C(c1ccc(Cl)cc1)N1CCN(c2ccnc3cc(Cl)ccc23)CC1 | inconclusive: 9.2 µM [cytotoxic, partial curve] | inconclusive: 14.6 µM [cytotoxic, partial curve]
CC1(C)CC[C@]2(C(=O)O[C@@H]3O[C@H](CO)[C@@H](O)[C@H](O)[C@H]3O)CC[C@]3(C)C(=CCC4[C@@]5(C)C[C@@H](O)[C@H](O)C(C)(C)C5[C@H](O)C[C@]43C)[C@@H]2[C@@H]1O (some centres undefined) | inactive | inactive
C/C=C/c1ccc(O[C@@H]2O[C@H](CO)[C@@H](O)[C@H](O)[C@H]2O)c(OC)c1 | inactive | inactive
CC1=CCC2C(C)(C)CCCC2(C)C1CC12OC1C(O)C(CO)=CC2O (centres undefined) | inconclusive: 20.2 µM [cytotoxic, single point] | inconclusive: 14.3 µM [cytotoxic, single point]
CC[C@H](NC(=O)c1c(O)c(-c2ccccc2)nc2ccccc12)c1ccccc1 | inconclusive: 18.4 µM [cytotoxic, partial curve] | inconclusive: 16.4 µM [cytotoxic, partial curve]

— PubChem BioAssay (NCATS)
